Results published in PubChem BioAssay (NCATS).
The other results are listed elsewhere or left out. Further columns of the screen follow, without active or inactive calls. The list favours compounds with an active or inconclusive main result. Words in brackets tell the shape of the fitted curve; partial curves, single points and poor fits give uncertain potencies.

Assay: qHTS Assay for Lipid Storage Modulators (AID 1519)
Settings: Drosophila S3 cells, BODIPY lipid droplet/cell ratio, laser cytometry; measured here: cell number channel AC50; cells loaded with oleic acid
Procedure, shortened: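 Cells seeded at 5,000 per well were treated with compounds over a concentration series and loaded with oleic acid (400 uM, as added). Lipid droplet fluorescence (488 nm excitation, 500-530 nm channel) was read by laser-scanning cytometry and normalized to 20 uM Triacsin C.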
Tags give direction and shape of the fitted curve.

Structure (SMILES)	AC50
C1CCc2nnnn2CC1	11.2 µM [falling, partial curve, poor fit]
Cc1noc(C)c1C(=O)N1CCC[C@@]2(CCN(Cc3ccc(C#N)cc3)C2)C1	22.4 µM [rising, partial curve, poor fit]
O=C1c2ccccc2C(=O)c2c1ccc(O)c2O	25.1 µM [rising, partial curve]
O=C(/C=C/c1ccccc1)c1cccs1	25.1 µM [rising, partial curve]
COc1cc2c(cc1OC)C(=O)Cc1ccc3c(c1CN(C)CC2)OCO3	14.1 µM [rising, partial curve, poor fit]
COCCn1c(=O)c(-c2ccc(OC)cc2)nc2cnc(Nc3ccccc3)nc21	1.12 µM [rising, partial curve]
COCCn1c(=O)c(CCc2ccccc2)nc2cnc(OC)nc21	1.41 µM [rising, full curve]
COc1cccc(-c2nccc(NCc3cccnc3)n2)c1	0.355 µM [rising, full curve, poor fit]
CCOc1ccc(/C=C/C(=O)c2cccs2)cc1	14.1 µM [rising, partial curve, poor fit]
C=CCN1CCc2cc(O)c(O)cc2[C@H](c2ccccc2)C1	25.1 µM [rising, partial curve, poor fit]
CC(C)(C)c1cc(O)c(C(C)(C)C)cc1O	15.8 µM [rising, partial curve, poor fit]
c1cncc(-c2cncnc2NCc2cccs2)c1	3.55 µM [rising, full curve, poor fit]
Cc1cc(NC(=O)Nc2ccc(N(C)C)cc2)c2cc(F)cc(F)c2n1	1.12 µM [rising, full curve]
COCCn1c(=O)c(-c2cccc(C#N)c2)nc2cnc(Oc3cccc(Cl)c3)nc21	3.16 µM [rising, single point]
COc1cccc(-c2ccc3ncnc(N(C)C)c3c2)c1	1.12 µM [rising, partial curve]
O=c1c(-c2ccccc2)nc2cnc(N3CCNCC3)nc2n1Cc1ccc(F)cc1	0.01 µM [rising, full curve, poor fit]
COc1cccc(-c2nc(NC3CC3)c3ccccc3n2)c1	0.0447 µM [rising, full curve]
COCCNc1nc(-c2cccc(NS(C)(=O)=O)c2)nc2ccccc12	0.501 µM [rising, full curve, poor fit]
COc1ccc(Oc2ncc3nc(-c4ccc(F)cc4)c(=O)n(C4CC4)c3n2)cc1	8.91 µM [rising, single point]
COc1ccc(C(=O)N2CCC[C@@]3(CCN(c4ccccc4)C3)C2)cc1	0.0891 µM [rising, full curve, poor fit]
c1ccc(Nc2nc(-c3cccnc3)nc3ccccc23)cc1	0.891 µM [rising, full curve]
N#CCCn1c(=O)cnc2cnc(Nc3ccccc3)nc21	1 µM [rising, full curve, poor fit]
COc1cccc(CNc2ccc3nc(-c4ccc(N)cc4)c(OC)n3n2)c1	0.794 µM [rising, full curve]
COc1ccc2[nH]cc(CCNc3nc(-c4cccnc4)nc4ccccc34)c2c1	0.1 µM [rising, full curve, poor fit]
CS(=O)(=O)Nc1cccc(-c2nccc(Nc3ccc(F)cc3)n2)c1	0.794 µM [rising, full curve, poor fit]
COc1ccccc1CNc1ccnc(-c2cccnc2)n1	0.251 µM [rising, full curve, poor fit]
COc1ccc(Oc2ncc3nc(-c4cc(F)cc(F)c4)c(=O)n(CCC#N)c3n2)cc1	0.00562 µM [rising, full curve, poor fit]
O=C(c1csnn1)N1CCC2(CCCN(c3ccc(-c4ccccc4)cc3)C2)CC1	1.78 µM [rising, full curve, poor fit]
CO/N=C(\C(=O)N[C@@H]1C(=O)N2C(C(=O)O)=C(CSc3nc(=O)c(O)nn3C)CSC12)c1csc(N)n1 (some centres not stated)	39.8 µM [rising, single point]
COc1ccccc1CCn1c(=O)c(-c2cn(C)c3ccccc23)nc2cncnc21	0.126 µM [rising, full curve, poor fit]

Same assay, conditions: Drosophila S3 cells, BODIPY lipid droplet/cell ratio, laser cytometry; measured here: lipid (BODIPY) channel AC50; cells loaded with oleic acid

Structure (SMILES)	AC50
CCNc1ncc2nc(-c3ccc(OC)cc3)c(=O)n(Cc3ccc(F)cc3)c2n1	0.501 µM [rising, partial curve]
O=C(OCCN1CCOCC1)C1(c2ccccc2)CCCCC1	7.08 µM [falling, full curve, poor fit]
O=C(c1ccncc1)N1CCC[C@@]2(CCN(Cc3ccccc3)C2)C1	0.0316 µM [rising, full curve, poor fit]
COCCn1c(=O)c(-c2cccc(C#N)c2)nc2cnc(N3CCNCC3)nc21	2.51 µM [rising, partial curve]
COc1ncc2nc(-c3ccc(Cl)cc3)c(=O)n(CCC#N)c2n1	0.0631 µM [rising, full curve]
COc1ncc2nc(-c3ccccc3)c(=O)n(CCC#N)c2n1	1.26 µM [rising, full curve]
Cc1ccc(-c2nn(CC(C)(C)C)c3ncnc(N)c23)cc1	35.5 µM [rising, partial curve, poor fit]
CS(=O)(=O)Nc1ccc([N+](=O)[O-])cc1OC1CCCCC1	31.6 µM [rising, single point]
COCCn1c(=O)c(-c2ccc(OC)cc2)nc2cnc(OC)nc21	0.0126 µM [rising, full curve, poor fit]
C[C@H]1[C@H](C)CC[C@]2(C(=O)O)CC[C@]3(C)C(=CCC4[C@@]5(C)CC[C@H](O)C(C)(C)[C@@H]5CC[C@]43C)[C@H]12 (some centres not stated)	39.8 µM [rising, single point]
C1CCc2nnnn2CC1	11.2 µM [falling, partial curve, poor fit]
Cc1noc(C)c1C(=O)N1CCC[C@@]2(CCN(Cc3ccc(C#N)cc3)C2)C1	2.24 µM [rising, partial curve, poor fit]
O=C1c2ccccc2C(=O)c2c1ccc(O)c2O	15.8 µM [rising, partial curve]
O=C(/C=C/c1ccccc1)c1cccs1	8.91 µM [rising, full curve]
COc1cc2c(cc1OC)C(=O)Cc1ccc3c(c1CN(C)CC2)OCO3	14.1 µM [rising, partial curve]
COCCn1c(=O)c(-c2ccc(OC)cc2)nc2cnc(Nc3ccccc3)nc21	0.0708 µM [rising, full curve]
COCCn1c(=O)c(CCc2ccccc2)nc2cnc(OC)nc21	0.891 µM [rising, full curve]
COc1cccc(-c2nccc(NCc3cccnc3)n2)c1	0.501 µM [rising, full curve, poor fit]
CCOc1ccc(/C=C/C(=O)c2cccs2)cc1	14.1 µM [rising, partial curve, poor fit]

Structure (SMILES)	AC50
C=CCN1CCc2cc(O)c(O)cc2[C@H](c2ccccc2)C1	28.2 µM [rising, partial curve, poor fit]
CC(C)(C)c1cc(O)c(C(C)(C)C)cc1O	12.6 µM [rising, partial curve, poor fit]
c1cncc(-c2cncnc2NCc2cccs2)c1	12.6 µM [rising, partial curve]
Cc1cc(NC(=O)Nc2ccc(N(C)C)cc2)c2cc(F)cc(F)c2n1	1 µM [rising, full curve]
COCCn1c(=O)c(-c2cccc(C#N)c2)nc2cnc(Oc3cccc(Cl)c3)nc21	3.55 µM [rising, single point]
COc1cccc(-c2ccc3ncnc(N(C)C)c3c2)c1	2.24 µM [rising, partial curve]
O=c1c(-c2ccccc2)nc2cnc(N3CCNCC3)nc2n1Cc1ccc(F)cc1	0.02 µM [rising, full curve, poor fit]
COc1cccc(-c2nc(NC3CC3)c3ccccc3n2)c1	0.0708 µM [rising, full curve]
COCCNc1nc(-c2cccc(NS(C)(=O)=O)c2)nc2ccccc12	1.12 µM [rising, partial curve]
COc1ccc(Oc2ncc3nc(-c4ccc(F)cc4)c(=O)n(C4CC4)c3n2)cc1	6.31 µM [rising, single point]
COc1ccc(C(=O)N2CCC[C@@]3(CCN(c4ccccc4)C3)C2)cc1	0.0501 µM [rising, full curve]
c1ccc(Nc2nc(-c3cccnc3)nc3ccccc23)cc1	0.891 µM [rising, full curve]
N#CCCn1c(=O)cnc2cnc(Nc3ccccc3)nc21	0.891 µM [rising, full curve, poor fit]
COc1cccc(CNc2ccc3nc(-c4ccc(N)cc4)c(OC)n3n2)c1	0.891 µM [rising, full curve]
COc1ccc2[nH]cc(CCNc3nc(-c4cccnc4)nc4ccccc34)c2c1	0.1 µM [rising, full curve, poor fit]
CS(=O)(=O)Nc1cccc(-c2nccc(Nc3ccc(F)cc3)n2)c1	0.708 µM [rising, full curve, poor fit]
COc1ccccc1CNc1ccnc(-c2cccnc2)n1	0.251 µM [rising, full curve, poor fit]
COc1ccc(Oc2ncc3nc(-c4cc(F)cc(F)c4)c(=O)n(CCC#N)c3n2)cc1	0.00562 µM [rising, full curve, poor fit]
